# The whole screen tested about 310,000 compounds, of which about 14,000 (4.5%) showed an effect of 50% or more. Effects have a minus sign here. This is one part of the list.
# Biological target: human ether-à-go-go-related gene (hERG) potassium channel (human, UniProt Q12809)
# Assay: primary screen, population patch clamp on CHO cells stably expressing hERG
# 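Also: peak tail current of the secondary pulse compared with the same well before compound.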
# Sequence of human ether-à-go-go-related gene (hERG) potassium channel (Q12809 whole entry, looked up): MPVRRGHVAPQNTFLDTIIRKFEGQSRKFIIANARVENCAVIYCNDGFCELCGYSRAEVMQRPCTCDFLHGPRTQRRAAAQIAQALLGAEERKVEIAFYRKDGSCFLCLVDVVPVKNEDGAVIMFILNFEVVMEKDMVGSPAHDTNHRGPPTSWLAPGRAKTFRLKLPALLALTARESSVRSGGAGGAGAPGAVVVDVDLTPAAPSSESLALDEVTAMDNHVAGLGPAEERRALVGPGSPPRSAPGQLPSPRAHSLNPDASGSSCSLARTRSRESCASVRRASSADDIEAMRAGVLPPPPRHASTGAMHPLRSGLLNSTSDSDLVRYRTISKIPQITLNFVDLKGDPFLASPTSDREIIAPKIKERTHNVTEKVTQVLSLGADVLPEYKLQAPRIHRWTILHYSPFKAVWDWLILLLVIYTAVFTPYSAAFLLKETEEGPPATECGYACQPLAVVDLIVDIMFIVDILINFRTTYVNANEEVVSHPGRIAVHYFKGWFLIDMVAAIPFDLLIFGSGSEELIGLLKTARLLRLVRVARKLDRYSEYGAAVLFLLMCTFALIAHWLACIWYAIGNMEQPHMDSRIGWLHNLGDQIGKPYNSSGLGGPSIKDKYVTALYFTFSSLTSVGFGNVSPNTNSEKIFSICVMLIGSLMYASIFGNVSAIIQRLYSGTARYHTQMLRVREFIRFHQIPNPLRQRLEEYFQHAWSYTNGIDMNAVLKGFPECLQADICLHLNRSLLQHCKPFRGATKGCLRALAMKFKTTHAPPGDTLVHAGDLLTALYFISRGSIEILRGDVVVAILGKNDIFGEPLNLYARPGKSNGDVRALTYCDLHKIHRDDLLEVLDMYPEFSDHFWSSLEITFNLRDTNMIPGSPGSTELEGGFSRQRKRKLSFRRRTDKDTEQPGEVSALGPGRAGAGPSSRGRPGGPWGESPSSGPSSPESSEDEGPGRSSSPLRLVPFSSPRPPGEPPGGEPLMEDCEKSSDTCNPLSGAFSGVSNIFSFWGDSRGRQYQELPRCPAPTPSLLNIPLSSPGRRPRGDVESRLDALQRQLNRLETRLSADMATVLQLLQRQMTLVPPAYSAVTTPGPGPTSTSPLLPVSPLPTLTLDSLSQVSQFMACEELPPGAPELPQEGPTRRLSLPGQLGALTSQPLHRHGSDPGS
row,Structure (SMILES),"hERG current change (%, negative = inhibition) at 10uM [%]"
1,COC(CNC(=O)c1cccnc1)OC,7.73
2,O=C1C2C3c4ccccc4C(Br)(c4ccccc43)C2C(=O)N1c1ccccc1O (stereo not shown),16.7
3,COC(=O)/C=C1/SC(=Nc2ccc(C)cc2C)NC1=O,9.81
4,COc1cccc(N(CC(=O)NC(C)(C)C)C(=O)C2CSC(=O)C2)c1 (stereo not shown),3.09
5,O=C(NC1CCSc2ccccc21)c1ccccc1Br (stereo not shown),-19
6,Cc1ccc(C)c(NC(=O)c2cccc(Oc3ccc([N+](=O)[O-])cc3Cl)c2)c1,-4.21
7,COc1ccccc1N1CCN(CC(O)COc2ccc3c(c2)CCC3)CC1.Cl (stereo not shown),-74.2
8,CCOC(=O)CC1=C(C(=O)OCC)C(c2ccc(C)o2)C(C#N)=C(N)O1 (stereo not shown),-13.1
9,CCN1C(=O)[C@H]2[C@@H](c3ccc(Cl)cc3)N3C(=O)CN(CCOC)C(=O)[C@@]3(C)[C@H]2C1=O,3.18
10,O=[N+]([O-])c1ccc(N2CCCC2)cc1NCc1ccccc1,15.4
11,NC(=O)NC(=O)c1nccnc1C(=O)O,16.9
12,CNS(=O)(=O)c1cccc(C(=O)OCC(=O)N2CCCC2)c1,12.6
13,O=C(CCn1cnnn1)Nc1ccccc1,26.1
14,CCOc1ccc(Cc2c(O)[nH]c(=O)[nH]c2=O)cc1,17
15,Nn1c(SCc2cc([N+](=O)[O-])cc3c2OCOC3)nnc1-c1cccnc1,12.4
16,Cn1c(SCC(=O)NC2CCCC2)nc2cccnc21,21.5
17,CN(C)S(=O)(=O)n1cc(/C=C(\NC(=O)c2ccccc2)C(=O)NCCN2CCOCC2)c2ccccc21,-15
18,O=S(=O)(c1ccc(Nc2ccc3c(c2)OCO3)nc1)N1CCOCC1,-13.2
19,CC1Cc2ccccc2N1C(=O)CN(C)CC(=O)Nc1cccc(F)c1 (stereo not shown),-32.7
20,COc1ccc(-c2ccc(SC)nn2)cc1,13
21,Nc1ccccc1O,12.5
22,NC(=O)[C@@H]1CCCNc2c(I)cc([N+](=O)[O-])cc2C(=O)N[C@@H](CO)C(=O)NCC(=O)N1,-29.2
23,CCOC(=O)C1(Cc2ccccc2C)CCCN(C(=O)c2cc(C3CC3)[nH]n2)C1 (stereo not shown),-7.24

row,Structure (SMILES),"hERG current change (%, negative = inhibition) at 10uM [%]"
1,S=c1[nH]nc(-c2ccco2)n1/N=C/c1ccc(Br)s1,7.16
2,COc1ccc(N(CC(=O)NC2CC3CCC2C3)S(=O)(=O)c2ccccc2)cc1OC (stereo not shown),-5.6
3,CCN(CC(=O)Nc1ccc(OC)cc1)CC(=O)N1CC(=O)Nc2ccccc21,-5.65
4,Cc1ccc(C(=O)NCCCCNC(=O)c2ccc(C)o2)o1,-7.22
5,CCN(CC(=O)Nc1c(F)cccc1F)C(=O)c1ccc(C(F)(F)F)cc1,10
6,Nc1nnc(Sc2ncccc2[N+](=O)[O-])s1,21.4
7,Nc1nc2ncc(C(=O)c3cc(Cl)cc(Cl)c3O)cc2s1,1.9
8,COc1ccc(Cc2nnc(NC(=O)CSc3ccc(C)cc3)s2)cc1,20.1
9,CC1(C)Cc2cccc(OCC(=O)Nc3cc(C(F)(F)F)ccc3N3CCOCC3)c2O1,1.13
10,CC1CC(C)CN(C(=O)Cn2c(-c3nonc3N)nc3ccccc32)C1 (stereo not shown),11
11,Cc1ccc(N=C2c3ccccc3C(=O)C2[N+](=O)[O-])cc1C (stereo not shown),12.7
12,Cc1noc(C(=O)NCc2ccco2)c1Cl,-15.3
13,Cc1ccc(OCCNC(=O)c2ccc3ccccc3n2)cc1,-34.5
14,O=C(COC(=O)Cc1ccccc1F)Nc1cccc(F)c1,22
15,O=C(Cn1c(-c2cscn2)nc2ccccc21)Nc1cc(F)ccc1F,16
16,COc1ccccc1CNC(=O)CSc1ccsc1[N+](=O)[O-],9.88
17,CCc1ccc(NC(=S)N2CCNC(=O)C2CC(=O)OC)cc1 (stereo not shown),7.17
18,CSc1ccccc1NC(=O)C1CCCO1 (stereo not shown),-0.135
19,CCOC(=O)C1=C(C)N=c2s/c(=C\c3cccc(OCC(=O)O)c3)c(=O)n2C1c1ccccc1OC (stereo not shown),28.7
20,Cc1cccc(CSc2nnc([C@@H]3CCCN3)o2)c1.Cl,-8.15
21,CCOC(=O)c1ccc(N/C=C\C(=O)c2cccc(OC)c2)cc1,-12.8
22,Cc1cc(Cl)ccc1Oc1nccc(N(C)C)c1C#N,2.02
23,O=C1CC(c2ccc(S(=O)(=O)NC3CC3)cc2)CN1 (stereo not shown),-6.42

row,Structure (SMILES),"hERG current change (%, negative = inhibition) at 10uM [%]"
1,COC(=O)C(C)Oc1ccc2c(-c3cccc([N+](=O)[O-])c3)cc(=O)oc2c1 (stereo not shown),-25.8
2,O=C(Nn1c(SCc2ccc([N+](=O)[O-])cc2)nc2ccccc2c1=O)c1ccc(F)cc1,-19
3,COc1ccc(COC(=O)c2cccc(S(=O)(=O)N3CCN(C(C)=O)CC3)c2)cc1F,-24.4
4,CCCCNS(=O)(=O)/C=C/c1ccccc1,10.4
5,COc1ccc(OC)c(/C=C/C(=O)OCC(=O)N2CCCC2)c1,-13.5
6,Cc1ccc(CCNC(=O)C2CCN(C(=O)c3sccc3-n3cccc3)CC2)cc1,-22.8
7,Cc1cc(NC(=O)C2C3C(=O)N(Cc4ccc(Cl)cc4)C(C(=O)NCc4ccccc4)C34C=CC2(C)O4)no1 (stereo not shown),-22.7
8,C=CCNC(=O)CSc1nc2sc3c(c2c(=O)n1CCC)CCC3,-7.64
9,CCCS(=O)(=O)N1CCN(C(=O)c2ccccc2F)CC1,-10.6
10,COc1cc(C(=O)NNC(=O)COc2ccccc2Cl)ccc1OCC(=O)N1CCOCC1,-6.54
11,CC(C)COc1cc(=O)[nH]c(SCC(C)C)n1,-5.01
12,CC(=O)N/N=c1\sc2ccccc2n1C,15.9
13,Cc1cc(C=C2C(=O)N(C)C(=S)N(C)C2=O)c(C)n1-c1ccncc1,7.84
14,S=c1nc(-c2cccc(Br)c2)[nH][nH]1,20
15,COc1cccc(OC)c1C(=O)Nc1nnc(-c2ccc(F)cc2)s1,11.5
16,Cc1cccc(C)c1OCc1nnc(SCC(=O)Nc2ccccc2F)o1,10.7
17,CCC(=O)Nc1c(-c2ccccc2Cl)c(=O)c2ccccc2n1C,15.4
18,Cc1nn(Cc2ccccc2)c(C)c1CCC(=O)O,-9.21
19,COC(=O)CCC(=O)OC1(C)C(=O)C=C2C=C(C3CC3)N(CCCCO)C=C2C1=O (stereo not shown),4.26
20,O=C(Nc1ccc(S(=O)(=O)N2CCOCC2)cc1)c1ccc(Br)o1,-64.8
21,COc1ccccc1N1CCN(C/C(O)=C(\C#N)c2nc(-c3ccccc3)cs2)CC1,11.6
22,O=C(CSc1nnnn1-c1ccc(Cl)cc1)NC(=O)Nc1ccc2c(c1)OCCO2,0.0445
23,O=C(Nc1ccncc1)Nc1ccc(F)cc1,6.6

row,Structure (SMILES),"hERG current change (%, negative = inhibition) at 10uM [%]"
1,O=C(O)C1CC(=O)N(c2ccc(OCc3ccc(Br)cc3)cc2)C1 (stereo not shown),6.71
2,Cc1c(OCc2nn[nH]n2)ccc2c(-c3ccccc3)cc(=O)oc12,12.3
3,COc1cccc(C2/C(=C(\O)c3ccc4c(c3)OCCO4)C(=O)C(=O)N2CC2CCCO2)c1 (stereo not shown),-13.7
4,S=c1[nH]nc(COc2ccccc2)n1/N=C/c1cccc(Br)c1,22.2
5,O=S(=O)(Nc1ccc2[nH]ncc2c1)c1ccccc1Cl,16.9
6,O=C(NCC1COc2ccccc2O1)c1ccc(Br)s1 (stereo not shown),16
7,O=C(COC(=O)c1cccnc1Cl)c1ccccc1,-4.84
8,Cc1cccc(CNC(=O)C2CCCN(c3nn4c(=O)cc(C)nc4s3)C2)c1 (stereo not shown),-33.8
9,COc1cccc(-c2cc(C(=O)NCc3ccc(Cl)cc3)no2)c1,13.6
10,COc1ccc(N2CCN(C(=O)CNC(=O)c3ccc(C(C)(C)C)cc3)CC2)cc1,0.964
11,COc1ccc(C(=O)NCC(=O)OCC(=O)N2CCc3ccccc32)cc1,-32.8
12,c1ccc2c3c([nH]c2c1)-c1[nH]ncc1CC3,1.38
13,O=C1CCCC2=C1C(c1ccsc1)CC(=O)N2c1ccccc1F (stereo not shown),4.64
14,Cc1ccc(N2CC(C(=O)NCc3ccco3)CC2=O)cc1Cl (stereo not shown),-4.79
15,O=C(CSc1ccc2nnc(-c3ccc(Cl)cc3)n2n1)N1CCCc2ccccc21,1.71
16,O=C(NCCN1CCOCC1)c1cc(-c2cccc(Cl)c2)on1,-4.73
17,Cc1ccccc1C(=O)NC1CCCCCCC1,9.85
18,CC1CCN(S(=O)(=O)c2ccc3c(c2)N(CC(=O)NCCCN2CCCC(C)C2)C(=O)CS3)CC1 (stereo not shown),-20.6
19,Cn1nnnc1SCC(=O)c1c(N)n(C2CC2)c(=O)[nH]c1=O,19.6
20,O=C(CSc1ncnc2c1cnn2CCO)Nc1cccc(C(F)(F)F)c1,-12
21,Cc1ccc(C)c(N2C(=O)CC(Cc3ccc(Br)cc3)C2=O)c1 (stereo not shown),6.6
22,COc1cccc(-c2nc(CS(=O)CC(=O)NC3CCCC3)c(C)o2)c1 (stereo not shown),1.08

# Reference: article PMC4336329 (PLoS ONE, 2015)
